# Data from PubChem BioAssay (NCI).
#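 Cells were grown in 96-well plates and exposed to each compound for 48 hours at five concentrations; endpoints were interpolated linearly between bracketing concentrations, or set to the highest concentration if not reached. At the GI50, growth is halved. TGI: concentration producing complete growth inhibition.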
# System: NCI-H322M lung
# Assay: NCI anticancer screen, dose series, 48 h
SMILES,GI50,TGI
CCN(CC)c1ccc(NC2=C(Cl)C(=O)c3nc(C)ccc3C2=O)cc1,14.8 µM,28.9 µM
Oc1ccc(CSc2nnc(-c3ccncc3)o2)c2cccnc12,3.13 µM,> 100 µM
